Test results: publication PMC12136788
This is one part of the list.

T1: UNK ZnF1-3 (human, UniProt Q9C0B0 31-174)
T1 sequence: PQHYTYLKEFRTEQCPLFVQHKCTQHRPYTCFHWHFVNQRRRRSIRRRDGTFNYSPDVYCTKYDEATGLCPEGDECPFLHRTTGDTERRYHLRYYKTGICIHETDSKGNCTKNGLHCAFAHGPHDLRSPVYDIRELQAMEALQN

B1: chr17:21094002:21094003:+_ENSMUSG00000007564_ENSMUST00000007708|mus_mus|FALSE|FALSE (ssRNA)
RNA: GGGAGUUCUACAGUCCGACGAUCCAUGUAGCGAACACGCCAAGACUUGUCCUCAGCAGCCUGUCGCAAGGUGGGCAUCACUAAGGCCUCCAGGUCCUCCUGUGGCAGAAGCUGGGCAAUAUUCACACAUGCCUCCACUGCCAGCAACAGAGGAUUGAGCAUCA
B2: chr15:98867917:98867918:+_ENSMUSG00000043091_ENSMUST00000058914|mus_mus|motif|central (ssRNA)
RNA: GGGAGUUCUACAGUCCGACGAUCAGGGUCACAUUUCACCAUCUGGUUGGCUGGCUCAAAGCAGGCAUUGGUGAUCUCUGCGGCUGUAAGCUGCUCAUGGUAGGCUUUCUCAGCAGAGAUGACAGGGGCAUAAGUGGCCAGAGGCAACAGAGGAUUGAGCAUCA
B3: 135292008_135298915_3170_CDS_ENSG00000155561_ENST00000285968|human|control|control (ssRNA)
RNA: GGGAGUUCUACAGUCCGACGAUCAUAUAUGACCUGGUAACAUAGCUCAGCCAGCUGAGGAGAUUCUCGCACCGCCACUGGGCCUGUUCUCCCUUCCGUUCCUUUCUCCAAGAUGUUUAGAAUGGCGUGAAGGCAUGUCCGAGGCAACAGAGGAUUGAGCAUCA
B4: chr2:171811166:171811167:+_ENSG00000115806_ENST00000234160|hu_mus|FALSE|FALSE (ssRNA)
RNA: GGGAGUUCUACAGUCCGACGAUCUCCUUCUUCAAAGGGGCGUGUAGGUAUUCGGUGCAAAUAACCAUAGCCAAUGCCACAUCCAAGGCUGCCUUCUCCGCCCCAUGCAGAGUUUGGUGUGAUGAUCACUUCUCUGCAGUUGUCCAACAGAGGAUUGAGCAUCA
B5: chr2:42510052:42510053:+_ENSG00000143924_ENST00000318522|hu_hu|motif|central (ssRNA)
RNA: GGGAGUUCUACAGUCCGACGAUCACAGUCUGUAUGGCCCAGGUAGUGUCGCUGAGUUCUCUCCUCAUAAUUAAAUAGUACGGCGGCUGAUGCAAUGAAAUAAACUAUUUUCCCGGUCGGAAGAAGGUAAACAUUAGCUCUACACAACAGAGGAUUGAGCAUCA
B6: chr2:42509997:42509998:+_ENSG00000143924_ENST00000318522|hu_mus|hu_hu_hu_mus_True|28_78 (ssRNA)
RNA: GGGAGUUCUACAGUCCGACGAUCUCGCUGAGUCCUCUCCUCAUAAUUAAACAGGACUACUACUGAUGCGAUAAAAUAAACUAUCUCCCCUGUGGGAAGCAGGUAUACAUUAGCUCUACAGUCCUUUCCUCGAUAACCGUAUACCAACAGAGGAUUGAGCAUCA
B7: chr9:59240146:59240147:-_ENSMUSG00000025234_ENSMUST00000171975|mus_mus|FALSE|FALSE (ssRNA)
RNA: GGGAGUUCUACAGUCCGACGAUCGCGUCAAGGCCACAGAGGAGUAGGCUGGGAUAGGAUCAUUCAUGAACUGAAGCAACUAAACCCUUUAACAGGCCGAGGCAUUUGCUUAGAAUGUGACUUCCUGGAUCUAGAUCCAGAAGCCAACAGAGGAUUGAGCAUCA
B8: 20213982_20218679_917_3pUTR_ENSMUSG00000020142_ENSMUST00000109594|mouse|control|control (ssRNA)
RNA: GGGAGUUCUACAGUCCGACGAUCCUUCUCCCUCGGGGCCUAGCUUCUUUAGAGCCACUCCUAACACCAGGGCAAAAAGGACGAGACCUAAAAUGUUCAUCCCUUCCACAUCUGUUACAACGGGGAUCUUCUCUUUGGUCACGUCAACAGAGGAUUGAGCAUCA
B9: chr1:46159212:46159213:+_ENSG00000159596_ENST00000372025|hu_mus|motif|central (ssRNA)
RNA: GGGAGUUCUACAGUCCGACGAUCUCUGAUCCCUCCCAAGAAAGCUAGGAAACCGGCUCCAUAAGCCAUCUGAGUGAAAGCGGGGACGGGGAUAUAAGACUUUGUUAUUACCAUGAGAAGUGGGGGAGCAGUAAAGGGGAUUAACAACAGAGGAUUGAGCAUCA
B10: chr15:72934872:72934873:-_ENSMUSG00000036698_ENSMUST00000044113|mus_mus|FALSE|FALSE (ssRNA)
RNA: GGGAGUUCUACAGUCCGACGAUCGACAUUUGGUCUGGGGAUACAUUUCAUAUUAAAAGUGUCACAAGUAAGCAUGGGCUACUACAGAAAGUACUUUGCUUCCAGUACUUUGGCCCAUCAGAAAGAAAACCUAUCCUUCAAGGUCAACAGAGGAUUGAGCAUCA
B11: chr1:39494564:39494565:+_ENSG00000168653_ENST00000372967|hu_hu|hu_hu_hu_mus_True|1_108 (ssRNA)
RNA: GGGAGUUCUACAGUCCGACGAUCAUGUGCACGUCUCAUCGUUUUGUACCGAAGCAAGCACUCUUCGAAGUCAUCGAACUCUAUCUUGCACUCCUUUUUCGCCCGGGUCCCACCGAUCCCGUGUGCACACUCUAUCCAUUCUUUCAACAGAGGAUUGAGCAUCA
B12: chr11:75505782:75505783:+_ENSMUSG00000017776_ENSMUST00000017920|mus_hu|FALSE|FALSE (ssRNA)
RNA: GGGAGUUCUACAGUCCGACGAUCCGCCUCCUCCUGCCUGAGAAUCACUCCACUACCCUGCCUGGAUCUGGAAACUGGUUCUAUCAACGUUGUAGUGUCCAAAUAGUGUAUUUUGUAGAAUUCCAGUAAAGCAGGCAAUGAAUCCAACAGAGGAUUGAGCAUCA
B13: chr1:78428562:78428563:-_ENSG00000162613_ENST00000370768|hu_mus|motif|central (ssRNA)
RNA: GGGAGUUCUACAGUCCGACGAUCAAUUGUAAAUAACUUCAUAUUGGGAUCUGCAUUAGGUGGAGGGCUUCUCUGCAGUUCGGUUCUUGCACCAGACUGUUGGCUUAUGCUUUUUAUGGUUUCACCUCCUUUUCCAAUGAUCAGCAACAGAGGAUUGAGCAUCA
B14: 101254855_101254975_2860_3pUTR_ENSMUSG00000042035_ENSMUST00000043983|mouse|control|control (ssRNA)
RNA: GGGAGUUCUACAGUCCGACGAUCGUUUUGAGGAUGAGCUUGCCGUCCGCGUCCGAGGGUUUGUGAACAUACCACAGCACGGCGAAGUGCGAGUUCGGGCUGGUCUGGGACUUGACUGAGCAGUUCAGCUGAAUUGCCCGGUUUCAACAGAGGAUUGAGCAUCA
B15: chr8:30550554:30550555:-_ENSG00000104687_ENST00000414019|hu_hu|FALSE|FALSE (ssRNA)
RNA: GGGAGUUCUACAGUCCGACGAUCGCCAGCGUUCUCCAGCUCCUCCGUGCAGUUGGUGCUGAUCAUUGAAUCAAAACUUCUAAGUACCUUAUCAUGCCGUAUCAUCAGUGAUGUCUUAGAACCCAGGGCUGACAGGAUCCCUGCCAACAGAGGAUUGAGCAUCA
B16: chr2:91455412:91455413:+_ENSMUSG00000040549_ENSMUST00000099716|mus_mus|FALSE|FALSE (ssRNA)
RNA: GGGAGUUCUACAGUCCGACGAUCCAUCAUCCGACACAGGUGGGCCUCCAAUUCUGACUCAUUCUUAUUAUCAAUCAUUGUAAGGUGGUCUAGGAUUUUAGGUCCUUUUAAUUUGCAUAAAGUAUGUAGAAGGGUCUUUAGAGUCAACAGAGGAUUGAGCAUCA
B17: chr2:178096590:178096591:-_ENSG00000116044_ENST00000397062|hu_hu|FALSE|FALSE (ssRNA)
RNA: GGGAGUUCUACAGUCCGACGAUCGAGGAUGCUGCUGAAGGAAUCCUCAAAAGCAUUAAGAAAAUGUGGACUACAGUUACCUACUUCUUUUUCCAUUGAGGGUAUAGAUGAGUAAAAAUGAUAAUUGUCAACUUCUGUCAGUUUCAACAGAGGAUUGAGCAUCA
B18: 48359645_48359765_414_CDS_ENSG00000134291_ENST00000256686|human|control|control (ssRNA)
RNA: GGGAGUUCUACAGUCCGACGAUCUACAAGGGAGUCUUGCUUAUUAAAUGUGACUUUCACCACUUUGAUGCCGUCAUCAUCCACAAGGACUGAAUGCGGAAACAGGAAGAAAACCACCAAACCAGAUGCCAGGAGACAAAGCAGCAACAGAGGAUUGAGCAUCA
B19: chr18:21054979:21054980:+_ENSG00000101782_ENST00000339486|hu_hu|motif|central (ssRNA)
RNA: GGGAGUUCUACAGUCCGACGAUCCUUUACUUCUUUUAAUUUAGGGGCUGGAACUUGAUCAUGGCCAAUAAAAGACAUAACGGAAAUGUGUUUCUUCAGUAGUACAACUGUUGGACAAGGAAUUCCAGCUCUCUGCAUUCUUGCCAACAGAGGAUUGAGCAUCA
B20: chr7:140404665:140404666:+_ENSG00000090266_ENST00000247866|hu_hu|hu_hu_hu_mus_False|98_98 (ssRNA)
RNA: GGGAGUUCUACAGUCCGACGAUCUGCUCCUACUCGUAGGCUGAGUCUACAGUGUCAGUCCUCGUCAUCAGGAGGGAUUCCCAGUUCUUCAUCUGUCCACUGUGAAGGAUCUGGAUAUGAAAAGUGACCCAGCACAGCAUCCGACAACAGAGGAUUGAGCAUCA
B21: 145167808_145167928_2028_3pUTR_ENSMUSG00000030265_ENSMUST00000032399|mouse|control|control (ssRNA)
RNA: GGGAGUUCUACAGUCCGACGAUCCUUAAAGCAUUAGAUAAUUUUAAAUACCUAUCAGAUUUGGGAAGUACUUGGGAAUGUUUGUUUAGCUAGAGUUGAGAGACUAGUCAAACCUGCAUUUUCAAACCUUCUUAAAACCUUGCUCAACAGAGGAUUGAGCAUCA
B22: chr10:126679069:126679070:-_ENSMUSG00000074657_ENSMUST00000099172|mus_mus|FALSE|FALSE (ssRNA)
RNA: GGGAGUUCUACAGUCCGACGAUCGCGGAUCUCUUCCUCAUAUUUCUGCCUUUCCUCAGGUGCGAUGCGUACCACAAUGGAUGAGUUGUCAUUCACAGGGGUCUCCUCGCAGAGCUCAGCUCCCAGAGCUGAGUCCUCUCCAGCCAACAGAGGAUUGAGCAUCA

target: T1, UNK ZnF1-3; assay: nsRBNS (natural sequence RNA bind-n-seq); RBNS binding buffer (assumed for nsRBNS): 25 mM Tris pH 7.5, 150 mM KCl, 3 mM MgCl2, 0.01% Triton X-100, 500 ug/ml BSA, 20 U/ml SUPERase-In, 4 C; UNK is unkempt and MSI1 is Musashi-1; names of the RNAs are library labels; protein concentration not given here; high values mean tight binding

In order of falling binding signal:
1. B7  1.83 enrichment R
2. B5  1.67 enrichment R
3. B9  1.5 enrichment R
4. B17  1.26 enrichment R
5. B8  1.12 enrichment R
6. B18  1.12 enrichment R
7. B3  1.11 enrichment R
8. B16  1.1 enrichment R
9. B12  1.08 enrichment R
10. B2  1.03 enrichment R
11. B14  1.02 enrichment R
12. B1  0.963 enrichment R
13. B19  0.944 enrichment R
14. B22  0.941 enrichment R
15. B20  0.914 enrichment R
16. B10  0.907 enrichment R
17. B6  0.895 enrichment R
18. B15  0.844 enrichment R
19. B4  0.624 enrichment R
20. B11  0.599 enrichment R
21. B21  0.518 enrichment R
22. B13  0.475 enrichment R
